Test results reported in paper PMC4336329 (PLoS ONE, 2015).
Hit rate of the full screen: of about 310,000 compounds, about 2,200 (0.71%) showed an effect of 50% or more. Effects have a minus sign here. The list shows a part of the results.

What follows are compounds tested against human ether-à-go-go-related gene (hERG) potassium channel (human, UniProt Q12809) (assay: primary screen, population patch clamp on CHO cells stably expressing hERG).
human ether-à-go-go-related gene (hERG) potassium channel, sequence (Q12809 whole entry, looked up): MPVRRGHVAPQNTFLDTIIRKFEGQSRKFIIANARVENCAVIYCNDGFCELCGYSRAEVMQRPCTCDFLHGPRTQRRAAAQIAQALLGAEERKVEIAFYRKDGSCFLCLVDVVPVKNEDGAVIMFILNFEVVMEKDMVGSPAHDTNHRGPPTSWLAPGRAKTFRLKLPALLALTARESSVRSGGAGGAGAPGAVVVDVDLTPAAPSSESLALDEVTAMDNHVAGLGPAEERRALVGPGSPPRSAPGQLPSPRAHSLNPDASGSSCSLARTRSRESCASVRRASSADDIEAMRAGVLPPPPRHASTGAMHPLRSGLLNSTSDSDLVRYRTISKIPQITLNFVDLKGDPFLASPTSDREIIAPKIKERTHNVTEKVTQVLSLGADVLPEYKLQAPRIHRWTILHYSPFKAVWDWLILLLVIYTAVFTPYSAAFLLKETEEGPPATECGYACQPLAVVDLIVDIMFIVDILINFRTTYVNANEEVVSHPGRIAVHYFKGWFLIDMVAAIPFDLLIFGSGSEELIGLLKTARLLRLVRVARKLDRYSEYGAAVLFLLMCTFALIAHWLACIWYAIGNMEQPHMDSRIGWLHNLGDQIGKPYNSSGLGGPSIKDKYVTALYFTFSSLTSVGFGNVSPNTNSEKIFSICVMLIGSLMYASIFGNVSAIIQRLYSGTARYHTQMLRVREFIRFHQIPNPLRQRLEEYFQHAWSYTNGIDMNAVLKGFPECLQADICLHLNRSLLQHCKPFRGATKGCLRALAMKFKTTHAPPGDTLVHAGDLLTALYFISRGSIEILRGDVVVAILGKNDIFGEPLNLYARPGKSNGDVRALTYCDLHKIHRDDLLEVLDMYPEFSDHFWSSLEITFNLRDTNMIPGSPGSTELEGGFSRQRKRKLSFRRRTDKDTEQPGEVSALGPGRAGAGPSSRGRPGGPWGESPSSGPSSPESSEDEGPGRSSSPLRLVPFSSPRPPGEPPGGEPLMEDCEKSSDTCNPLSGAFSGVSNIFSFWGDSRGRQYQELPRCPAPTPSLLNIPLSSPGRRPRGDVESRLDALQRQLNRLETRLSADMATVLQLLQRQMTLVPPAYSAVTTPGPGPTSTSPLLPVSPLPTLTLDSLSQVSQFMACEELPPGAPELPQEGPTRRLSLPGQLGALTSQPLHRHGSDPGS
With `Cn1c(SCC(=O)Nc2nc(C(C)(C)C)cs2)nnc1C1CC1` the “hERG current change (%, negative = inhibition) at 1uM” value was 4.9%.
With `C[C@@H](C(=O)NCc1ccc(S(C)(=O)=O)cc1)[C@@H]1C[C@@]1(C)[C@@H](NC(=O)OCc1ccccc1)c1ccccc1` the “hERG current change (%, negative = inhibition) at 1uM” value was -5.47%.
For `CCOc1ccc(-c2cc(C(=O)NCC3CCCO3)c3ccccc3n2)cc1` (centres unmarked), the “hERG current change (%, negative = inhibition) at 1uM” value was 3.62%.
For `Brc1c(CSc2nnc(-c3ccco3)o2)nc2ccccn12`, the “hERG current change (%, negative = inhibition) at 1uM” value was -11.5%.
In the case of `Cc1nn(-c2ccccc2)c(N2CCCC2)c1/C=N/NC(=O)c1cc(-c2ccccc2)nc2ccccc12`, the “hERG current change (%, negative = inhibition) at 1uM” value is reported as 4.69%.
In the case of `O=C(COC(=O)c1ccco1)c1ccc(F)cc1`, the “hERG current change (%, negative = inhibition) at 1uM” value is reported as 10.3%.
In the case of `CCC(C)CNC(=O)c1cccc(OC2CCN(CC(C)(C)C)CC2)c1` (centres unmarked), the “hERG current change (%, negative = inhibition) at 1uM” value is reported as 10.3%.
With `CC(=O)c1c(C)n(-c2ccccc2)c2ccc(OCC(N)=O)cc12` the “hERG current change (%, negative = inhibition) at 1uM” value was 16.9%.
With `Cc1ccccc1CSc1nnc(C)c(=O)n1N` the “hERG current change (%, negative = inhibition) at 1uM” value was 12.7%.
For `NS(=O)(=O)c1ccc(CCNC(=O)CSc2nc3ccccc3c(=O)n2CC2CCCO2)cc1` (centres unmarked), the “hERG current change (%, negative = inhibition) at 1uM” value was -2.27%.
`COc1ccc(NC(=O)C2CC(c3ccc(Cl)cc3)=NO2)cc1` (centres unmarked) was tested, and the “hERG current change (%, negative = inhibition) at 1uM” value was 7.77%.
For `Cc1ccc(C(=O)NCCSc2ccc(Cl)cc2)cc1[N+](=O)[O-]`, the “hERG current change (%, negative = inhibition) at 1uM” value was -1.08%.
For `O=C(NCc1ccccc1)N1CCC(Cc2ccccc2)CC1`, the “hERG current change (%, negative = inhibition) at 1uM” value was 13.8%.
`CCNC(=O)c1cc2c(=O)n3cccc(C)c3nc2n(Cc2ccc(C)cc2)c1=N` was tested, and the “hERG current change (%, negative = inhibition) at 1uM” value was -97.1%.
With `C=C(C)Cn1c(CCNC(=O)C(C)C)nc2ccccc21` the “hERG current change (%, negative = inhibition) at 1uM” value was 3.04%.
In the case of `COCCn1c(SCC(=O)Nc2ccccc2)nc2c1c(=O)[nH]c(=O)n2C`, the “hERG current change (%, negative = inhibition) at 1uM” value is reported as 4.36%.
In the case of `COCCN(C(=S)Nc1cc(C)cc(C)c1)C(C)c1ccco1` (centres unmarked), the “hERG current change (%, negative = inhibition) at 1uM” value is reported as 8.78%.
With `Cc1ccc(NC(=O)C(c2ccccc2)N2CCN(CC(=O)NC3CC3)CC2)cc1` (centres unmarked) the “hERG current change (%, negative = inhibition) at 1uM” value was 5.77%.
`CNc1ccccc1NC(=O)CCn1c(=S)oc2ccccc21` was tested, and the “hERG current change (%, negative = inhibition) at 1uM” value was 7.44%.
In the case of `O=C(N/N=C/c1ccccc1)C(O)c1ccccc1` (centres unmarked), the “hERG current change (%, negative = inhibition) at 1uM” value is reported as 14.8%.
`O=S(=O)(NCc1cccnc1)c1ccc(Cl)cc1` was tested, and the “hERG current change (%, negative = inhibition) at 1uM” value was 7.59%.
In the case of `COc1ccc(N2CCN(c3ccc(N)cc3C#N)CC2)cc1`, the “hERG current change (%, negative = inhibition) at 1uM” value is reported as 2.25%.
`Cc1cccnc1NC(=O)c1ccccc1-c1ccccc1C(=O)Nc1ncccc1C` was tested, and the “hERG current change (%, negative = inhibition) at 1uM” value was -15.9%.
For `O=C(c1ccccc1-c1nc(-c2ccccc2)no1)N1CCCC1`, the “hERG current change (%, negative = inhibition) at 1uM” value was 3.39%.
With `O=C(Nc1cc(S(=O)(=O)N2CCOCC2)ccc1N1CCCC1)c1cc(=O)[nH]c2ccccc12` the “hERG current change (%, negative = inhibition) at 1uM” value was 9.3%.
For `CC1CN(c2ncnc3c2oc2ccccc23)CC(C)O1.Cl` (centres unmarked), the “hERG current change (%, negative = inhibition) at 1uM” value was 12.3%.
For `O=S1(=O)CCC(N=Cc2ccc(-c3ccc(Cl)cc3)o2)C1` (centres unmarked), the “hERG current change (%, negative = inhibition) at 1uM” value was 6.29%.
`COc1cccc(Nc2nc(C)cc(C)c2C#N)c1` was tested, and the “hERG current change (%, negative = inhibition) at 1uM” value was 14.2%.
`Cc1cccc(-n2c(SCC(=O)Nc3ccc4c(c3)OCO4)nnc2-c2ccoc2C)c1` was tested, and the “hERG current change (%, negative = inhibition) at 1uM” value was 3.48%.
For `CCOc1cc(C2C(C(C)=O)=C(C)Nc3ncnn32)ccc1O` (centres unmarked), the “hERG current change (%, negative = inhibition) at 1uM” value was 13.5%.
In the case of `O=[N+]([O-])c1ccc(O)c(CSc2nnnn2-c2ccccc2)c1`, the “hERG current change (%, negative = inhibition) at 1uM” value is reported as 16.3%.
With `Cc1ccc(NS(=O)(=O)N2CCOCC2)cc1` the “hERG current change (%, negative = inhibition) at 1uM” value was 19.1%.
In the case of `COc1ccccc1CN1CCN(C(=O)Cc2ccccc2)CC1`, the “hERG current change (%, negative = inhibition) at 1uM” value is reported as 3.58%.
`Cc1ccc(S(=O)(=O)N(Cc2ccc(C(F)(F)F)cc2)C(=O)N2CCN(C)CC2)cc1` was tested, and the “hERG current change (%, negative = inhibition) at 1uM” value was 13%.
For `O=C(CNC(=O)C1CCCCC1)Nc1ccc(F)c(Cl)c1`, the “hERG current change (%, negative = inhibition) at 1uM” value was -0.579%.
For `COc1ccc(C(=O)NCC(c2ccco2)N2CCc3ccccc32)c(OC)c1` (centres unmarked), the “hERG current change (%, negative = inhibition) at 1uM” value was 3.02%.
For `C=CCN=C1CC(C)(C)C(C(=O)OC)C(O)=C1C(=O)CCC` (centres unmarked), the “hERG current change (%, negative = inhibition) at 1uM” value was 11.6%.
In the case of `c1coc(-c2nc3c([nH]2)CCc2nonc2-3)c1`, the “hERG current change (%, negative = inhibition) at 1uM” value is reported as 15.2%.
For `CCc1cc2cccc(C)c2nc1SCC(=O)NNC(=O)c1ccco1`, the “hERG current change (%, negative = inhibition) at 1uM” value was -0.11%.
With `CCCCc1nnc(NC(=O)C=C(C)C)s1` the “hERG current change (%, negative = inhibition) at 1uM” value was 11.7%.
`O=C(CCN1C(=O)COc2ccccc21)N1CCC2(CC1)OCCO2` was tested, and the “hERG current change (%, negative = inhibition) at 1uM” value was 3.41%.
In the case of `CNCC(O)COc1cccc(OC)c1` (centres unmarked), the “hERG current change (%, negative = inhibition) at 1uM” value is reported as 6.57%.
For `COC(=O)C(=Cc1ccccc1[N+](=O)[O-])C(=O)OC`, the “hERG current change (%, negative = inhibition) at 1uM” value was 14.2%.
With `NC(=O)C1(NC(=O)[C@@H]2CC3(CC(c4cccc(NC(=O)[C@@H]5CCC(=O)N5)c4)=NO3)CN2C(=O)c2ccccc2)CC1` (some centres unmarked) the “hERG current change (%, negative = inhibition) at 1uM” value was 9.88%.
